# Reference: patent US7592316B2, “Peptides as NS3-serine protease inhibitors of hepatitis C virus” (Schering Corporation, priority 2000, dated 2009)
# Molecular target: HCV NS3/NS4A protease (strain 1a) (Hepatitis C virus genotype 1a, UniProt P27958)
# Test: biochemical
# Conditions: Compounds prepared by Solid Phase Synthesis, Table 3; read-out: Ki* CLASS
row,Structure (SMILES),Ki
1,"CCCC(NC(=O)[C@@H]1C[C@@H](OC(C)(C)C)CN1C(=O)[C@@H](NC(=O)c1c(F)cccc1F)C1CCCCC1)C(=O)C(=O)NCC(=O)NC(C(N)=O)c1cc(OC)cc(OC)c1 (some centres unmarked) ({Benzoyl(2,6-F2)}-[Chg][Hyp](tBu)[X2]G[ξPhg(3,5-(OMe)2)]-NH2)",101 to 1000 nM
2,"CCCC(NC(=O)[C@@H]1C[C@@H](OC(C)(C)C)CN1C(=O)[C@@H](NC(=O)c1c(F)cccc1F)C1CCCCC1)C(=O)C(=O)NCC(=O)NC(C(N)=O)c1cccc(Cl)c1 (some centres unmarked) ({Benzoyl(2,6-F2)}-[Chg][Hyp](tBu)[X2]G[ξPhg(3-Cl)]-NH2)",101 to 1000 nM
3,"CCCC(NC(=O)[C@@H]1C[C@@H](OC(C)(C)C)CN1C(=O)[C@@H](NC(=O)c1c(F)cccc1F)C1CCCCC1)C(=O)C(=O)NCC(=O)NC(C(N)=O)c1cccc(F)c1 (some centres unmarked) ({Benzoyl(2,6-F2)}-[Chg][Hyp](tBu)[X2]G[ξPhg(3-F)]-NH2)",101 to 1000 nM
4,"CCCC(NC(=O)[C@@H]1C[C@@H](OC(C)(C)C)CN1C(=O)[C@@H](NC(=O)c1c(F)cccc1F)C1CCCCC1)C(=O)C(=O)NCC(=O)NC(C(N)=O)c1cccc(OC)c1 (some centres unmarked) ({Benzoyl(2,6-F2)}-[Chg][Hyp](tBu)[X2]G[ξPhg(3-OMe)]-NH2)",101 to 1000 nM
5,"CC(C)CC(NC(=O)[C@@H]1C[C@@H](OC(C)(C)C)CN1C(=O)[C@@H](NC(=O)c1c(F)cccc1F)C1CCCCC1)C(=O)C(=O)NCC(=O)N[C@H](C(N)=O)c1ccccc1 (some centres unmarked) ({Benzoyl(2,6-F2)}-[Chg][Hyp](tBu)[ξLeu(ψCOCO)]G[Phg]-NH2)",> 1000 nM
6,"CCCC(NC(=O)[C@@H]1C[C@@H](O)CN1C(=O)[C@@H](NC(=O)c1c(F)cccc1F)C1CCCCC1)C(=O)C(=O)NCC(=O)NC(C(N)=O)c1cc(OC)cc(OC)c1 (some centres unmarked) ({Benzoyl(2,6-F2)}-[Chg][Hyp][X2]G[ξPhg(3,5-(OMe)2)]-NH2)",101 to 1000 nM
7,CCCC(NC(=O)[C@@H]1C[C@@H](OCc2ccccc2)CN1C(=O)C(NC(=O)c1ccccc1C(F)(F)F)C1CCCCC1)C(=O)C(=O)NCC(=O)NC(C(N)=O)c1ccccc1 (some centres unmarked) ({Benzoyl(2-CF3)}-[ξChg][Hyp](Bn)[X2]G[ξPhg]-NH2),101 to 1000 nM
8,CCCC(NC(=O)[C@@H]1C[C@@H](OCc2ccccc2)CN1C(=O)C(NC(=O)c1ccccc1C(F)(F)F)C1CCCCC1)C(=O)C(=O)NCC(=O)NC(C(=O)O)c1ccccc1 (some centres unmarked) ({Benzoyl(2-CF3)}-[ξChg][Hyp](Bn)[X2]G[ξPhg]-OH),101 to 1000 nM
9,CCCCC(NC(=O)[C@@H]1C[C@@H](OCc2ccccc2)CN1C(=O)C(NC(=O)c1ccccc1C(F)(F)F)C1CCCCC1)C(=O)C(=O)NCC(=O)NC(C(N)=O)c1ccccc1 (some centres unmarked) ({Benzoyl(2-CF3)}-[ξChg][Hyp](Bn)[X4]G[ξPhg]-NH2),101 to 1000 nM
10,CCCC(NC(=O)[C@@H]1C[C@@H](OCc2ccccc2)CN1C(=O)[C@H](CCCC(=O)OC(C)(C)C)NC(=O)c1ccccc1C(=O)O)C(=O)C(=O)NCC(=O)N[C@H](C(N)=O)c1ccccc1 (some centres unmarked) ({Benzoyl(2-COOH)}-[Aad](OtBu)[Hyp](Bn)[X2]G[Phg]-NH2),> 1000 nM
11,CCCC(NC(=O)[C@@H]1C[C@@H](OCc2ccccc2)CN1C(=O)[C@H](CCCC(=O)O)NC(=O)c1ccccc1C(=O)O)C(=O)C(=O)NCC(=O)N[C@H](C(N)=O)c1ccccc1 (some centres unmarked) ({Benzoyl(2-COOH)}-[Aad][Hyp](Bn)[X2]G[Phg]-NH2),101 to 1000 nM
12,CCCC(NC(=O)[C@@H]1C[C@@H](OC(C)(C)C)CN1C(=O)[C@@H](NC(=O)c1ccccc1C(=O)O)C1CCCCC1)C(=O)C(=O)NCC(=O)N[C@H](C(N)=O)c1ccccc1 (some centres unmarked) ({Benzoyl(2-COOH)}-[Chg][Hyp](tBu)[X2]G[Phg]-NH2),1 to 100 nM
13,CCCC(NC(=O)[C@@H]1C[C@@H](OC(C)(C)C)CN1C(=O)[C@@H](NC(=O)c1ccccc1C(=O)O)C1CCCCC1)C(=O)C(=O)NCC(=O)N[C@H](CC(=O)OC(C)(C)C)C(N)=O (some centres unmarked) ({Benzoyl(2-COOH)}-[Chg][Hyp](tBu)[X2]G[dD](OtBu)-NH2),> 1000 nM
14,"CCCC(NC(=O)[C@@H]1C[C@@H](OC(C)(C)C)CN1C(=O)[C@@H](NC(=O)c1ccccc1C(=O)O)C1CCCCC1)C(=O)C(=O)NCC(=O)NC(C(N)=O)c1cccc(OC)c1OC (some centres unmarked) ({Benzoyl(2-COOH)}-[Chg][Hyp](tBu)[X2]G[ξPhg(2,3-(OMe)2)]-NH2)",101 to 1000 nM
15,"CCCC(NC(=O)[C@@H]1C[C@@H](OC(C)(C)C)CN1C(=O)[C@@H](NC(=O)c1ccccc1C(=O)O)C1CCCCC1)C(=O)C(=O)NCC(=O)NC(C(N)=O)c1cc(OC)cc(OC)c1 (some centres unmarked) ({Benzoyl(2-COOH)}-[Chg][Hyp](tBu)[X2]G[ξPhg(3,5-(OMe)2)]-NH2)",101 to 1000 nM
16,CCCC(NC(=O)[C@@H]1C[C@@H](OC(C)(C)C)CN1C(=O)[C@@H](NC(=O)c1ccccc1C(=O)O)C1CCCCC1)C(=O)C(=O)NCC(=O)NC(C(N)=O)c1cccc(Cl)c1 (some centres unmarked) ({Benzoyl(2-COOH)}-[Chg][Hyp](tBu)[X2]G[ξPhg(3-Cl)]-NH2),101 to 1000 nM
17,CCCC(NC(=O)[C@@H]1C[C@@H](OC(C)(C)C)CN1C(=O)[C@@H](NC(=O)c1ccccc1C(=O)O)C1CCCCC1)C(=O)C(=O)NCC(=O)NC(C(N)=O)c1cccc(F)c1 (some centres unmarked) ({Benzoyl(2-COOH)}-[Chg][Hyp](tBu)[X2]G[ξPhg(3-F)]-NH2),101 to 1000 nM
18,CCCC(NC(=O)[C@@H]1C[C@@H](OC(C)(C)C)CN1C(=O)[C@@H](NC(=O)c1ccccc1C(=O)O)C1CCCCC1)C(=O)C(=O)NCC(=O)NC(C(N)=O)c1cccc(OC)c1 (some centres unmarked) ({Benzoyl(2-COOH)}-[Chg][Hyp](tBu)[X2]G[ξPhg(3-OMe)]-NH2),101 to 1000 nM
19,CCC(NC(=O)[C@@H]1C[C@@H](OC(C)(C)C)CN1C(=O)[C@@H](NC(=O)c1ccccc1C(=O)O)C1CCCCC1)C(=O)C(=O)NCC(=O)N[C@H](C(N)=O)c1ccccc1 (some centres unmarked) ({Benzoyl(2-COOH)}-[Chg][Hyp](tBu)[ξ(3-Amino-2-oxopentanoyl)]G[Phg]-NH2),101 to 1000 nM
20,CC(C)CC(NC(=O)[C@@H]1C[C@@H](OC(C)(C)C)CN1C(=O)[C@@H](NC(=O)c1ccccc1C(=O)O)C1CCCCC1)C(=O)C(=O)NCC(=O)N[C@H](C(N)=O)c1ccccc1 (some centres unmarked) ({Benzoyl(2-COOH)}-[Chg][Hyp](tBu)[ξLeu(ψCOCO)]G[Phg]-NH2),> 1000 nM
21,CCCC(NC(=O)[C@@H]1C[C@@H](OC(C)(C)C)CN1C(=O)[C@@H](NC(=O)c1ccccc1C(=O)O)C(C)(C)C)C(=O)C(=O)NCC(=O)N[C@H](C(N)=O)c1ccccc1 (some centres unmarked) ({Benzoyl(2-COOH)}-[Tle][Hyp](tBu)[X2]G[Phg]-NH2),101 to 1000 nM
22,CCCC(NC(=O)[C@@H]1C[C@@H](OCc2ccccc2)CN1C(=O)C(NC(=O)c1ccccc1C(=O)O)C1CCCCC1)C(=O)C(=O)NCC(=O)N[C@@H](C(N)=O)c1ccccc1 (some centres unmarked) ({Benzoyl(2-COOH)}-[ξChg][Hyp](Bn)[X2]G[dPhg]-NH2),101 to 1000 nM
23,CCCC(NC(=O)[C@@H]1C[C@@H](OCc2ccccc2)CN1C(=O)C(NC(=O)c1ccccc1C(=O)O)C1CCCCC1)C(=O)C(=O)NCC(=O)NC(C(N)=O)c1ccccc1 (some centres unmarked) ({Benzoyl(2-COOH)}-[ξChg][Hyp](Bn)[X2]G[ξPhg]-NH2),101 to 1000 nM
24,CCCC(NC(=O)[C@@H]1C[C@@H](OCc2ccccc2)CN1C(=O)C(NC(=O)c1ccccc1C(=O)O)C1CCCCC1)C(=O)C(=O)NCC(=O)NC(C(=O)O)c1ccccc1 (some centres unmarked) ({Benzoyl(2-COOH)}-[ξChg][Hyp](Bn)[X2]G[ξPhg]-OH),1 to 100 nM
25,CCCCC(NC(=O)[C@@H]1C[C@@H](OCc2ccccc2)CN1C(=O)C(NC(=O)c1ccccc1C(=O)O)C1CCCCC1)C(=O)C(=O)NCC(=O)NC(C(N)=O)c1ccccc1 (some centres unmarked) ({Benzoyl(2-COOH)}-[ξChg][Hyp](Bn)[X4]G[ξPhg]-NH2),101 to 1000 nM
26,CCCCC(NC(=O)CNC(=O)C(=O)C(CCC)NC(=O)[C@@H]1C[C@@H](OCOCCOC)CN1C(=O)C(NC(=O)c1ccccc1C(=O)O)C1CCCCC1)C(N)=O (some centres unmarked) ({Benzoyl(2-COOH)}-[ξChg][Hyp](MEM)[X2]G[ξNle]-NH2),101 to 1000 nM

# *1 amine or outer side, *2 acyl side, *3 side chain or, on linkers, in order; H or OH if unused. Where a SMILES comes first, the peptide text is derived from it. [ ]: non-standard residue; d: D form. The star is where a group is joined. ξ: configuration not given here. ξ(3-Amino-2-oxopentanoyl) = CCC(N[*:1])C(=O)C(=O)[*:2]; ξPhg(3,5-(OMe)2) = COc1cc(OC)cc(C(N)C(=O)O)c1; ξLeu(ψCOCO) = CC(C)CC(N[*:1])C(=O)C(=O)[*:2]; ξPhg(2,3-(OMe)2) = COc1cccc(C(N)C(=O)O)c1OC; Benzoyl(2-CF3) = O=C(c1ccccc1C(F)(F)F)*; Benzoyl(2-COOH) = O=C(O)c1ccccc1C(=O)*; Benzoyl(2,6-F2) = O=C(c1c(F)cccc1F)*; ξPhg(3-OMe) = COc1cccc(C(N)C(=O)O)c1; ξPhg(3-Cl) = NC(C(=O)O)c1cccc(Cl)c1; X4 = CCCCC(N[*:1])C(=O)C(=O)[*:2]; ξPhg(3-F) = NC(C(=O)O)c1cccc(F)c1; Hyp = O=C(O)[C@@H]1C[C@@H](O)CN1; X2 = CCCC(N[*:1])C(=O)C(=O)[*:2]; Aad = N[C@@H](CCCC(=O)O)C(=O)O; dPhg = N[C@@H](C(=O)O)c1ccccc1; Chg = N[C@H](C(=O)O)C1CCCCC1; Phg = N[C@H](C(=O)O)c1ccccc1; Tle = CC(C)(C)[C@H](N)C(=O)O; ξChg = NC(C(=O)O)C1CCCCC1; ξPhg = NC(C(=O)O)c1ccccc1; ξNle = CCCCC(N)C(=O)O; Bn = c1ccc(C*)cc1; OtBu = CC(C)(C)O*; tBu = CC(C)(C)*; MEM = COCCOC*
